In PubChem BioAssay (NCATS):
The other results are listed elsewhere or left out. Further columns of the screen follow, without active or inactive calls. Most of these compounds were active or inconclusive in the main read-out, so they are no random draw. Bridge positions count the residues as written; N and C are the ends. Square brackets hold non-standard residues; d marks the D form. Peptide text beside a SMILES is read from it. * marks the point of attachment. ξ: configuration not given here. ξDab(CH2SO3H) = NC(CCNCS(=O)(=O)O)C(=O)O; Heptanoyl(6-Me) = CC(C)CCCCC(=O)*; Dab = NCC[CH](N)C(=O)O

Assay: qHTS Assay for Lipid Storage Modulators (AID 1519)
Settings: Drosophila S3 cells, BODIPY lipid droplet/cell ratio, laser cytometry; measured here: cell count channel max response; cells loaded with oleic acid
Procedure, shortened: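 Cells seeded at 5,000 per well were treated with compounds over a concentration series and loaded with oleic acid (400 uM, as added). Lipid droplet fluorescence (488 nm excitation, 500-530 nm channel) was read by laser-scanning cytometry and normalized to 20 uM Triacsin C.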

Compound	max response [%]
CNCC(O)c1cccc(O)c1 (stereo not given)	30.8
CN(C)c1ncc2nc(-c3ccc(F)cc3)c(=O)n(CCC#N)c2n1	21.3
Cc1noc(C)c1-c1nc(Nc2ccc(F)cc2)c2ccccc2n1	32.5
COc1cc(O)c2c(=O)cc(-c3ccccc3)oc2c1	85.8
COc1ccccc1CNc1ccnc(-c2ccccc2Cl)n1	33.3
COc1cc(O)c2c(=O)cc(-c3ccc(OC)c(-c4c(O)cc(O)c5c(=O)cc(-c6ccc(O)cc6)oc45)c3)oc2c1	-43.5
Cc1cnc(CNc2ccnc(-c3cccnc3)n2)cn1	38
Cc1ccccc1-c1nc(N(C)C)c2ccccc2n1	25.4
COC(=O)C(C)(N)Cc1ccc(O)cc1 (stereo not given)	36.2
O=C(c1cccc(F)c1)N1CCC[C@@]2(CCN(Cc3ccncc3)C2)C1	11.6
COc1cc2cc(Oc3ccc4ccc(=O)oc4c3)c(=O)oc2cc1O	86.5
CCc1ccc2c(-c3cccc(Cl)c3)nc(=O)n(CC)c2n1	118
c1cncc(-c2cc(-n3ccnc3)ncn2)c1	35.4
Cc1cnc(CNc2nc(-c3ccccc3C(F)(F)F)nc3ccccc23)cn1	34.5
Cc1nc2cnc(Oc3ccccc3)nc2n(Cc2cccs2)c1=O	35.9
COc1ccc2c(=O)cc(-c3ccccc3)oc2c1O	126
CN(C)c1ncc2nc(CCc3ccccc3)c(=O)n(CCc3ccccc3)c2n1	14.6
COc1ccc(CNc2ccnc(-c3ccccc3Cl)n2)c(OC)c1	18.6
O=c1cnc2cnc(Oc3ccccc3)nc2n1Cc1ccc(F)cc1	32.5
COc1ccccc1CCn1c(=O)c(CCc2ccccc2)nc2cncnc21	48.3

Compound	max response [%]
O=c1c(O)c(-c2cccc(O)c2)oc2ccccc12	15.6
Cc1cnc(CNc2nc(-c3ccccc3Cl)nc3ccccc23)cn1	46.8
CCC(C)C1NC(=O)C(CCNCS(=O)(=O)O)NC(=O)C(NC(=O)C(CCNCS(=O)(=O)O)NC(=O)C(NC(=O)C(CCNCS(=O)(=O)O)NC(=O)CCCCC(C)C)C(C)O)CCNC(=O)C(C(C)O)NC(=O)C(CCNCS(=O)(=O)O)NC(=O)C(CCNCS(=O)(=O)O)NC(=O)C(C(C)CC)NC1=O (stereo not given) ({Heptanoyl(6-Me)}-[ξDab(CH2SO3H)]T[ξDab(CH2SO3H)][Dab][ξDab(CH2SO3H)]II[ξDab(CH2SO3H)][ξDab(CH2SO3H)]T; lactam 4-C; configuration not given here)	52.2
C[N+](C)(C)CCOC(=O)CCC(=O)OCC[N+](C)(C)C	-7.42
COc1ccc2c(c1OC)C(=O)O[C@H]2C1c2c(cc3c(c2OC)OCO3)CCN1C (stereo not given in full)	103
COCCn1c(=O)c(-c2cccc(F)c2)nc2cncnc21	42.2
CCOC(=O)C1=C(N)Oc2ccc(Br)cc2[C@@H]1[C@@H](C#N)C(=O)OCC	84.9
CSC(=N)N	-6.77
Cc1nc2cnc(Oc3cccc(Cl)c3)nc2n(CCc2ccccc2)c1=O	11.6
COc1ccc2cccc(N3CCN(CCNC(=O)c4ccc(F)cc4)CC3)c2c1	52.4
Nc1ncnc2c1nc(Sc1ccc(Cl)cc1)n2[C@H]1O[C@@H]2COP(=O)(O)O[C@H]2[C@@H]1O	68.1
FC(F)(F)c1ccccc1-c1cncnc1NCc1ccccc1	32.9
COc1ccccc1N1CCN(C[C@@H]2CN3C(=O)N(C)c4ccccc4C3=N2)CC1	79.3
COc1ccc(C(=O)N2CCC[C@@]3(CCN(c4cccc(-c5ccccc5)c4)C3)C2)cc1	-3.77
O=c1cnc2cnc(N3CCOCC3)nc2n1Cc1ccc(F)cc1	20.5
CN1CCc2cccc3c2[C@H]1Cc1ccc(O)c(O)c1-3	80.5
COc1ccccc1-c1cncnc1NCc1cnc(C)cn1	32.9
CN1CCN2c3ccccc3Cc3ccccc3[C@@H]2C1	37
NC1(C(=O)O)CCCCC1	-11.6
CCNc1ncc2nc(-c3cn(C)c4ccccc34)c(=O)n(Cc3ccc(F)cc3)c2n1	29.5
